Reference: PubChem BioAssay AID652104 (National Center for Advancing Translational Sciences (NCATS), 2013)
Hit rate of the full screen: of about 410,000 compounds, about 7,200 (1.8%) were called active. This list was built around the results that the source calls inconclusive (neither active nor inactive); the mix of calls is not that of the screen. Calls come from the whole dose curve; as a rule, active = well fitted activation curve with a large enough effect; inconclusive = small, poorly fitted or top-dose-only effect, or another doubt; inactive = no such curve, though single readings can be large or run the other way. A potency beside an inconclusive call is a rough fit, not a confirmed value.

Experiment: qHTS of TDP-43 Inhibitors; note: nearly all actives have a fitted effect of over 50% in size; for growth rescue (activation): % of control where 0% means no effect
Settings: TDP-43 expressing yeast growth rescue, BacTiter-Glo, 24 h; growth rescue (activation): at 46.1 µM (top of the series) unless noted
Summary of the method: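 Readout is BacTiter-Glo luminescence of cell growth, so inhibitors register as activators. TDP-43-expressing yeast at OD600=0.02 in galactose medium, after raffinose pregrowth to mid-log, were incubated with compound for 24 hr at 30 deg C.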
Potency is the fitted concentration of half-maximal effect; tags give direction and shape of the fitted curve.

Potency, inconclusive:
C(=N\n1cnnc1)/c1cccc(Oc2ccccc2)c1 10 µM [activator, single point]
Cc1ccc(C(=O)O/N=C(\N)Cc2cccc3ccccc23)cc1 15.8 µM [activator, single point]
COc1ccc(C2CC2/C(=N/O)c2ccccc2)cc1 (stereo unspecified) 28.2 µM [activator, partial curve]
O=C(Nc1cc(C(F)(F)F)ccc1-n1cnc2ccccc21)c1ccccc1 20 µM [activator, single point]
CCCCc1ccc(NS(=O)(=O)c2cccs2)cc1 12.6 µM [activator, single point]
CCc1ccc(-c2nc(CSCC(=O)NCc3ccco3)c(C)o2)cc1 35.5 µM [activator, single point]
O=C(O)/C(=C\c1ccc(Cl)cc1)c1ccc(F)cc1 17.8 µM [activator, single point]
Cc1nc(SCc2cccc(Cl)c2)nc2c1CCCC2 6.31 µM [activator, single point]
Cc1ccc2nsnc2c1S(=O)(=O)N1CCN(C(=O)C2CCCO2)CC1 (stereo unspecified) 35.5 µM [activator, single point]
Brc1ccc2c(c1)OCCOCCOCCOCCOCCO2 11.2 µM [activator, partial curve]
O=C(NCCc1csc(-c2cccnc2)n1)c1cccc(Cl)c1 31.6 µM [activator, single point]
CCOc1ccc(CC(=O)NCCc2sc3nc(-c4ccc(F)cc4)nn3c2C)cc1 7.08 µM [activator, full curve]
Cc1ccc(CSc2nc3nc(C)cc(C)n3n2)cc1 12.6 µM [activator, partial curve]
COc1ccc(-c2c(C)nc3c(-c4ccccn4)cnn3c2N)cc1 25.1 µM [activator, single point]
COc1ccc2c(Cl)c(C(=O)N/N=C/c3c(C)[nH]c4ccccc34)sc2c1 15.8 µM [activator, partial curve]
CCOC(=O)c1c(-n2cccc2)sc2c1CCCC2=O 20 µM [activator, partial curve, poor fit]
Fc1ccc(-c2nc3c4ccccc4ccn3c2Cc2ccccc2C(F)(F)F)cc1 3.55 µM [activator, full curve]
CCCCOc1ccc(C(=O)N(Cc2ccc(N(C)C)cc2)Cc2ccco2)cc1 39.8 µM [activator, partial curve]
Cn1nc(C(=O)Nc2ccc3c(c2)OCCO3)c2ccccc2c1=O 35.5 µM [activator, partial curve, poor fit]
CCC(=O)C1=C(c2ccc(F)cc2)N(C(=O)CC)n2cnnc2S1 31.6 µM [activator, single point]
O=C(O)c1ccc(N=C2SCC(=O)N2Cc2ccccc2)cc1 35.5 µM [activator, single point]
CSc1nc(Nc2ccc(F)cc2)cc(-c2ccccc2)n1 12.6 µM [activator, partial curve, poor fit]
N#Cc1c(NC(=O)CSc2nnc(-c3ccco3)n2-c2ccccc2)sc2c1CCC2 2.51 µM [activator, full curve]
Clc1ccc(CSc2ncnc3nc[nH]c23)cc1 35.5 µM [activator, single point]
CCCCN1C(=O)c2cccc3cc(O)cc(c23)C1=O 3.55 µM [activator, partial curve]
Cc1ccc(C)c(Oc2ncnc(N)c2[N+](=O)[O-])c1 10 µM [activator, partial curve]
COc1cccc(CNC(=O)c2ccc(F)c(S(=O)(=O)N3CCCCC3)c2)c1 35.5 µM [activator, partial curve]
COc1cccc(Oc2ccc(C(F)(F)F)cc2NC(=O)CCc2nc3ccccc3c(=O)[nH]2)c1 2.51 µM [activator, full curve, poor fit]
O=C(Oc1ccc2c3c(c(=O)oc2c1)CCCC3)c1ccco1 14.1 µM [activator, single point]
O=C(Nc1ccc2c(c1)OCCO2)c1ccc2nccnc2c1 25.1 µM [activator, single point]
COc1ccc(Oc2nc(-c3ccccn3)nc3ccccc23)cc1 10 µM [activator, single point]
Cc1c(Cl)cccc1NS(=O)(=O)c1ccc(-c2cnc(C3CC3)o2)cc1 25.1 µM [activator, single point]
Cc1ccc(-c2nc(C#N)c(N3CCCCC3)o2)cc1 20 µM [activator, partial curve, poor fit]
c1ccc(-c2cc3nc(NCc4cccs4)ccn3n2)cc1 35.5 µM [activator, single point]
CCOC(=O)C1=CCN(S(=O)(=O)c2ccccc2[N+](=O)[O-])C1c1ccc(C)cc1 (stereo unspecified) 8.91 µM [activator, partial curve, poor fit]
CCCCSc1nc2c(c(C(F)(F)F)c1C#N)CCC2 14.1 µM [activator, single point]
Cc1csc(SCC(=O)Nc2cc(F)ccc2C)n1 15.8 µM [activator, partial curve]
CCn1cc(S(=O)(=O)c2cccc(C)c2)c(=O)c2cc(F)c(N3CCCC(C)C3)cc21 (stereo unspecified) 2.51 µM [activator, single point]
c1cc2c3c(cccc3c1)-c1cnccc1-2 25.1 µM [activator, single point]
CC1CCc2cc(F)ccc2N1C(=O)CN1C(=O)c2ccccc2C1=O (stereo unspecified) 28.2 µM [activator, single point]
O=C(Nc1nc2cc3c(cc2s1)OCCO3)C1=COCCO1 20 µM [activator, single point]
COC(=O)c1scc(C)c1NC(=O)c1ccc(Cl)cc1 6.31 µM [activator, full curve, poor fit]

Potency, active:
O=C1OC(c2cccc3c(F)cccc23)c2ccccc21 (stereo unspecified) 20 µM
Cc1ccc(C(=O)OCc2cc(=O)n3c(C)csc3n2)s1 22.4 µM
O=C(c1ccc(COc2ccccc2Cl)o1)N1CCN(c2ccccc2)CC1 35.5 µM
CCc1ccc(NC(=O)CSc2nccn2-c2ccc(F)cc2)cc1 15.8 µM
Cc1ccc2cccc(NC(=O)c3ccc(OC(C)C)cc3)c2n1 11.2 µM
CCn1c2ccccc2c(=O)c2ccccc21 12.6 µM
C#Cc1ccc(NC(=O)C2(C)CCN2C(=O)C/C=C/c2ccccc2)cc1 (stereo unspecified) 25.1 µM
CN1C(=O)/C(=C2\SC(N3CCCCCC3)=NC2=O)c2ccccc21 15.8 µM
CC(=O)C(Sc1ncnc2sc3c(c12)CCCC3)C(C)=O 17.8 µM
N/C(=N\OC(=O)N1c2ccccc2Sc2ccccc21)c1ccccc1 3.55 µM
O=C(Oc1ccccc1/C=C\C(=O)c1cc2ccccc2o1)c1ccccc1 22.4 µM
C=CCC[C@@H](Cc1ccc(F)cc1)C(=O)OC[C@@H]1CCCN1C(=O)[C@@H](CC=C)CC(=O)N[C@@H](CO)Cc1ccccc1 12.6 µM

Potency, inactive:
CC(C)N(Cc1nc(-c2ccc(Cl)cc2)no1)C(=O)c1ccc(C(C)(C)C)cc1
CCOC(=O)[C@H]1[C@H]2COc3ccc(Br)cc3[C@@H]2N2C(=O)N(c3ccccc3)C(=O)[C@@]12C
COc1ccccc1OCC(=O)NCC1CCCN(Cc2cnn(C)c2C)C1 (stereo unspecified)
COc1ccc(N2CC(NC(=O)/C=C\c3ccc4c(c3)OCO4)CC2=O)cc1OC (stereo unspecified)
CCSc1nc2n(n1)C(c1ccc(Cl)cc1Cl)C(C(=O)Nc1ccccc1C)=C(C)N2 (stereo unspecified)
CCOc1ccccc1NC(=O)COC(=O)COc1c(Cl)cc(Cl)c2ccc(C)nc12
CC(=O)N1c2ccc(S(=O)(=O)N(C)CC(=O)NCc3ccccc3)cc2CC1C (stereo unspecified)
CSc1sc(-c2nnc(SCC(=O)Nc3ccccc3)n2C)c2c1C=CCC2
O=C(CSc1oc(-c2ccccc2)nc1S(=O)(=O)c1ccc(Cl)cc1)c1ccccc1
CC(=O)NC(CC(C)C)C(=O)NC(Cc1ccccc1)C(=O)CCl (stereo unspecified)
Cc1cc(C)cc(OCC(=O)Nc2c(C(=O)c3ccccc3)oc3ccccc23)c1
Cc1ccccc1NC(=O)c1c(C)oc2ccc(O)c(CN3CCOCC3)c12
COc1ccc(N(C(=O)c2snc(C(N)=O)c2N)C(C(=O)NC2CCCC2)c2ccc3ncccc3c2)cc1 (stereo unspecified)
COCCNC(=O)c1cc(-c2ccccc2)nn1CC1CC(c2cccc([N+](=O)[O-])c2)=NO1 (stereo unspecified)
CCC(=O)Oc1c(Sc2ccc(Cl)cc2)c(C)nn1-c1ccccc1

Growth rescue (activation), inactive:
Cc1ccc(NC2=C(Cl)C(=O)OC2OC(=O)c2ccccc2)c(C)c1 (stereo unspecified) 22.5% [at 9.22 µM]
CCCOc1ccc(/C=N\NC(=O)CCc2n[nH]c(=O)[nH]c2=O)cc1OC -7.51% [at 0.397 µM]
